About 14,000 (4.5%) of roughly 310,000 compounds showed an effect of 50% or more. The effect is printed as a negative number. This is one part of the list.
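Further: peak tail current of the secondary pulse compared with the same well before compound.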

Chain of human ether-à-go-go-related gene (hERG) potassium channel (Q12809 whole entry, looked up): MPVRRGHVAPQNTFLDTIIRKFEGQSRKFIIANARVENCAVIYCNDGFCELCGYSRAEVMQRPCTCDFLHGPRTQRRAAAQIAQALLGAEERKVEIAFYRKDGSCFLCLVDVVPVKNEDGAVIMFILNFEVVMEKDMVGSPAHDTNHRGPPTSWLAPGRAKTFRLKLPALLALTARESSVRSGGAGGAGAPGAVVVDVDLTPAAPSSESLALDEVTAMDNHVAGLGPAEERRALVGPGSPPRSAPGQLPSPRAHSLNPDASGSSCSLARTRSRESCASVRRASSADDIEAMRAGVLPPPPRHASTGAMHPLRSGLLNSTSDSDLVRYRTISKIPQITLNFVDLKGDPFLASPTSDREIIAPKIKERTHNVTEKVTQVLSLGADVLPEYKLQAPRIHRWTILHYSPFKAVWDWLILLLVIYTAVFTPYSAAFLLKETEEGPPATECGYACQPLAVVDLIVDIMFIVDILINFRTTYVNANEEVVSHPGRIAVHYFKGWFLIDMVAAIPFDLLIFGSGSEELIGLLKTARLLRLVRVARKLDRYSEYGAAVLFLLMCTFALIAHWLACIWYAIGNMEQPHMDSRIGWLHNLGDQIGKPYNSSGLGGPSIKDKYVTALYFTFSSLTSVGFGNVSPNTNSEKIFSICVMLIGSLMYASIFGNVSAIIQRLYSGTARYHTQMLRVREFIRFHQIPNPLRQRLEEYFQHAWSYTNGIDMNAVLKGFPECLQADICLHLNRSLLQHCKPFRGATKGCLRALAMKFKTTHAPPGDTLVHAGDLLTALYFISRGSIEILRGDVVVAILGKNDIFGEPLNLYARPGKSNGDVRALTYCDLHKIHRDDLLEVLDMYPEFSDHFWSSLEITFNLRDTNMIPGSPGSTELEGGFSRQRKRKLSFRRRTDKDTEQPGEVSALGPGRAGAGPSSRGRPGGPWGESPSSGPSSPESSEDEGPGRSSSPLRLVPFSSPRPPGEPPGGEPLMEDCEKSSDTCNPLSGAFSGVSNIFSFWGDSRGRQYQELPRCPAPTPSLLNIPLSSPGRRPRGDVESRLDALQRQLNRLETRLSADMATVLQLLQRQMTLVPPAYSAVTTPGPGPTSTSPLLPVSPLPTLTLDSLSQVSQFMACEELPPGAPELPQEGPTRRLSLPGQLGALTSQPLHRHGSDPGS

This assay concerns the target human ether-à-go-go-related gene (hERG) potassium channel (human, UniProt Q12809). The assay can be described thus: primary screen, population patch clamp on CHO cells stably expressing hERG.
For `Cc1nn(C)c(C)c1CNC(=O)Nc1ccc(Cl)cc1`, the “hERG current change (%, negative = inhibition) at 10uM” value is -5.93%.

For the compound `COc1ccc(/C=N/NS(=O)(=O)c2ccccc2)cc1OS(=O)(=O)c1ccccc1`, the “hERG current change (%, negative = inhibition) at 10uM” value is given as -4.53%. As for `CC1CCCN(C(=O)CCS(=O)(=O)c2cc3c(cc2Cl)NC(=O)CO3)C1` (centres unmarked), the figure is -27%.

Consider `CCOc1ccc(N(CC(=O)NC2CCCCCC2)S(=O)(=O)c2c(C)noc2C)cc1`, for which the “hERG current change (%, negative = inhibition) at 10uM” value is reported as -18.2%. In the case of `COc1cc2c(cc1OC)C(c1cccs1)N(C(=S)NC(C)C)CC2` (centres unmarked) it was -40%; in that of `CN(C(=O)CS(=O)(=O)Cc1ccccc1Cl)c1ccccc1`, 8.38%. On to `Cc1cc(C)n(-c2nc(C)nc3c2cnn3-c2ccccc2)n1`, for which the “hERG current change (%, negative = inhibition) at 10uM” value stood at 13%. As for `C=CCn1c(NCc2c[nH]c3ccccc23)nc2ccccc21`, the figure is -27.6%. In the case of `O=C(COc1ccccc1)NC1CCCN(Cc2ccccc2F)C1` (centres unmarked) it was -15.1%; in that of `COc1ccc(/C=N/NC(=O)c2ccccc2O)cc1Cn1nnc2ccccc21`, -5.6%. Turning to `O=C(N/N=C\c1ccccc1)c1sccc1-n1cccc1`, the “hERG current change (%, negative = inhibition) at 10uM” value was -17.5%. `CSCCC(NS(=O)(=O)c1ccc(C)cc1)C(=O)N1CC=C(c2ccccc2)CC1` (centres unmarked): the “hERG current change (%, negative = inhibition) at 10uM” value was found to be 10.2%. For `O=C(O)CCC(=O)NC1CCCCC1`, the “hERG current change (%, negative = inhibition) at 10uM” value was 6.89%. With `O=C(CCC(=O)N1CCN(S(=O)(=O)c2ccc3ccccc3c2)CC1)NCC(F)(F)F`, the “hERG current change (%, negative = inhibition) at 10uM” value is given as 25.8%. In the case of `CCNS(=O)(=O)c1ccc2c(c1)n(C)c(=O)n2C` it was -5.88%; in that of `COC(=O)CSc1ncnc2scc(-c3ccccc3)c12`, -22.1%; in that of `Cc1ccc(C(=O)N/C(=C/c2ccc(F)cc2)C(=O)NCc2ccncc2)cc1`, -72.8%. In the case of `CCCOc1ccc(CSC2=NCCN2)cc1[N+](=O)[O-]` it was -66.7%; in that of `O=C(c1cnn2c1NC(c1ccc(Br)cc1)CC2C(F)(F)F)N1CCN(C23CC4CC(CC(C4)C2)C3)CC1` (centres unmarked), -7.5%; in that of `CCOc1ccc(N(C(=O)Cn2nnc3ccccc32)C(C(=O)NC(C)(C)CC)c2cccn2C)cc1` (centres unmarked), 22.7%. In the case of `Cc1cccc(NC2=C(Cl)C(=O)OC2NC(=O)c2ccccc2)c1` (centres unmarked) it was 1.58%; in that of `CCOc1ccc(NC(=O)CCN2C(=O)c3cccc([N+](=O)[O-])c3C2=O)cc1`, 12.1%. Take `Cc1ccc(NC(=O)NC(=O)c2ccccc2)cc1F`: the “hERG current change (%, negative = inhibition) at 10uM” value was 18.1%.

Take `O=C(O)CC(CCc1ccccc1)OC1OC(CO)C(O)C(O)C1O` (centres unmarked): the “hERG current change (%, negative = inhibition) at 10uM” value stood at 14.4%. In the case of `N#Cc1ccc(NC(=O)COC(=O)CSc2nnc(-c3ccc(Cl)cc3)o2)cc1` it was -3.87%. As for `CS(=O)(=O)N1CCc2cc(-c3csc(NC(=O)C(c4ccccc4)c4ccccc4)n3)ccc21`, the figure is 9.14%; as for `Clc1ccc(-c2cc(C3CCNCC3)[nH]n2)cc1`, -3.21%.

On to `COCCNC(=O)COc1ccc(Oc2ccccc2)cc1`, for which the “hERG current change (%, negative = inhibition) at 10uM” value was 4.33%. For `CC1CCCC(NC(=O)CCCn2c(=S)[nH]c3ccccc3c2=O)C1C` (centres unmarked), the “hERG current change (%, negative = inhibition) at 10uM” value is 4.09%.

Consider `O=C(CNCCC1=CCCCC1)Nc1ccccc1N1CCCCC1.O=C(O)C(=O)O`, for which the “hERG current change (%, negative = inhibition) at 10uM” value stood at 7.28%. For the compound `COC(=O)C1=C(C)NC(=S)N(C(C)=O)C1c1ccccc1` (centres unmarked), the “hERG current change (%, negative = inhibition) at 10uM” value is reported as -8.87%. In the case of `Clc1ccc(OCc2nc(-c3ccncc3)no2)c(Br)c1` it was -20.1%; in that of `CCOC(=O)CCn1c2nc(C)cc(C)c2c(=O)n1-c1ccccc1`, -6.66%. As for `CC1CCN(C(=O)c2[nH]cnc2C(=O)NCc2ccc(CNC(=O)OC(C)(C)C)cc2)CC1`, the figure is -2.55%; as for `N#Cc1sc2nc(-c3cccs3)cc(-c3ccc(F)cc3)c2c1N`, 14.1%. As for `CN(C)c1ccc(-c2sc(Nc3ccccc3)n[n+]2-c2ccc(F)cc2)cc1.[Cl-]`, the “hERG current change (%, negative = inhibition) at 10uM” value is reported as -73.1%.

`O=C(NC(=S)NCC1CCCO1)c1cccs1` (centres unmarked): the “hERG current change (%, negative = inhibition) at 10uM” value was 13.7%. Regarding `NC(=O)Cn1c(O)c(N=NC(=O)CNC(=O)/C=C/c2ccccc2)c2ccccc21`, the “hERG current change (%, negative = inhibition) at 10uM” value came out at 13.3%. As for `COc1cc(OC)cc(C(=O)NCC2CCCO2)c1` (centres unmarked), the figure is 7.37%. In the case of `Cc1ccc(C)c(NC(=O)CN(C)S(=O)(=O)c2ccc(F)cc2)c1` it was 3.47%; in that of `Cn1cnnc1SCCNS(=O)(=O)c1ccccc1`, 10.8%; in that of `Nc1ccc(C(=O)N(CCO)CCO)cc1`, 18%. As for `Cc1cc(NC(=O)CN2C(=O)NC3(CCCCC3C)C2=O)no1` (centres unmarked), the figure is -4.25%; as for `COC(=O)c1cc(OC)c(OC)cc1NC(=O)Cc1cccs1`, 0.709%.

For the origin of these results see PMC4336329 (PLoS ONE, 2015).
